Results as given in US20200377599A1 (BETH ISRAEL DEACONESS MEDICAL CENTER, published 2020).

Target: T1, SPOP (UniProt O43791)
T1 construct: Expressed in 293T cells or endogenous in PC3, MDA-MB-231 and HeLa cells; also called SPOP-WT; Flag-tagged SPOP WT
Assay: co-immunoprecipitation from transfected 293T cells (FIG. 8G)

- binding result: no binding
B1: PD-L1 T290M mutant (ligand)
chain: not shown
notes: Cancer-derived mutant (cBioPortal samples TCGA-IB-7651-01 and TCGA-BR-4362-01); also called cancer-derived PD-L1 T290M; HA-PD-L1 T290M
